From patent publication US11479587B2, “Cationic intrinsically disordered antimicrobial peptides” (priority 2016, dated 2022)
Values after ≈ are worked out from the molar mass of the structure shown. Not every detail of the peptide structures is certain; ends, links or a residue may be inferred. Some results were stated once for a whole list of compounds, not compound by compound. Residues, ends and D or L forms follow the SMILES beside them. No end group written: not given here.

Assays:
S. aureus ATCC 6538 = assay: CFU-assay, S. aureus-cidal activity; format: cell-based, Staphylococcus aureus; conditions: for MBC99: kills 99.0% of inoculum
Description: Thus, within the present invention, the antimicrobial activity is generally measured in nutrient deficient 10 mM sodium phosphate buffer pH 5.5, containing 0.25% glucose, using the CFU-assay according to Steinberg and Lehrer, 1997 (supra), unless otherwise indicated. The CFU-assay allows determination of the minimal bactericidal concentration (MBC, e.g., MBC90 and MBC100; i.e. the concentration of compound required to achieve a specified reduction in bacterial cell number (microbial death or killing)).
Various peptides corresponding to repeat domains of hornerin (HR 1-11: HRNR 2606-2628; HR 1-17: HRNR 2656-2684 and HR 1-18: HRNR 2656-2677) were tested for P. aeruginosa ATCC 10145-cidal activity in 10 mM Na-phosphate buffer pH 5.5, containing 0.25% glucose by counting the numbers of colonies of surviving bacteria at serial, twofold dilutions from 300 μg/ml down to 19 ng/ml of each peptide (CFU-assay; Steinberg and Lehrer, 1997, Methods Mol. Biol. 78, 169-186).
Staphylococcus aureus is a major skin pathogen, which causes skin infections, in particular in atopic dermatitis. The sensitivity of S. aureus ATCC 6538 towards several CIDAMPs was assessed using the CFU-assay as above (see Example 1). HR 1-18, which lacks S. aureus.-bactericidal activity, is converted in a S. aureus-cidal peptide, when all His are replaced by Arg (HR 1-18 4H-4R; see Table 13 and FIG. 9). […] HR 1-18 4H-4R is rich in Ser and Arg and contains a single Leu residue. When this single Leu was replaced by Gly in S. aureus-cidal HR 1-18 4H-4R (forming HR 1-18 4H-4R/L-G), S. aureus-cidal activity was abolished at both pH 7.0 and pH 5.5 (see Table 13 and FIG. 9).

P. aeruginosa ATCC 10145 = assay: CFU-assay, P. aeruginosa-cidal activity; format: cell-based, Pseudomonas aeruginosa; conditions: for MBC90 / MBC100: pH 5.5, 0.25% glucose; for P. aeruginosa MBC90 / P. aeruginosa MBC100: pH 5.5

CCCCCCCCCCCCCCCC(=O)NCC(=O)N[C@@H](CCCNC(=N)N)C(=O)N[C@@H](CCCNC(=N)N)C(=O)NCC(=O)NCC(=O)N[C@@H](CCCNC(=N)N)C(=O)O [Pal-GR6, Pal-GRRGGR] (HELM PEPTIDE1{[CCCCCCCCCCCCCCCC(=O)[*:2]].G.R.R.G.G.R}$$$$V2.0)
MBC90 (S. aureus ATCC 6538; pH 5.5, 0.25% glucose): 2.35 µg/mL (≈ 2.62 µM) | MBC100 (S. aureus ATCC 6538; pH 5.5, 0.25% glucose): 37.5, MBC99: μg/ml | MBC99 (S. aureus ATCC 6538; pH 5.5, 0.25% glucose): 4.7 µg/mL (≈ 5.24 µM) | MBC90 (P. aeruginosa ATCC 10145): 1.18 µg/mL (≈ 1.32 µM) | MBC100 (P. aeruginosa ATCC 10145): 4.7 µg/mL (≈ 5.24 µM)

Pal-CGQHGATSGQSSSHGQHGSGSSQSSR (N-terminal palmitoyl; S-palmitoylated peptide derived from human hornerin (S-Pal-HRNR 623-648); LIPID (1)..(1) … (THIOETHER BOND)) [S-Pal-HRNR623-648]
max.killing (S. aureus ATCC 6538; pH 5.5, 0.25% glucose): 99.7-99.9%

CCCCCCCCCCCCCCCC(=O)NCC(=O)N[C@@H](CCCNC(=N)N)C(=O)N[C@@H](CCCNC(=N)N)C(=O)NCC(=O)NCC(=O)N[C@@H](CCCNC(=N)N)C(=O)NCC(=O)NCC(=O)N[C@@H](CCCNC(=N)N)C(=O)NCC(=O)N[C@@H](CCCNC(=N)N)C(=O)O [Pal-GR11] (HELM PEPTIDE1{[CCCCCCCCCCCCCCCC(=O)[*:2]].G.R.R.G.G.R.G.G.R.G.R}$$$$V2.0)
MBC90 (S. aureus ATCC 6538; pH 5.5, 0.25% glucose): 0.3 µg/mL (≈ 0.217 µM) | MBC100 (S. aureus ATCC 6538; pH 5.5, 0.25% glucose): 75 µg/mL | MBC99 (S. aureus ATCC 6538; pH 5.5, 0.25% glucose): 1.18 µg/mL (≈ 0.855 µM) | MBC90 (P. aeruginosa ATCC 10145): 0.075 µg/mL (≈ 0.0544 µM) | MBC100 (P. aeruginosa ATCC 10145): 0.3 µg/mL (≈ 0.217 µM)

CCCCCCCCCCCCCCCC(=O)NCC(=O)N[C@H](CCCNC(=N)N)C(=O)N[C@H](CCCNC(=N)N)C(=O)NCC(=O)NCC(=O)N[C@H](CCCNC(=N)N)C(=O)NCC(=O)NCC(=O)N[C@H](CCCNC(=N)N)C(=O)NCC(=O)N[C@H](CCCNC(=N)N)C(=O)NCC(=O)N[C@H](CCCNC(=N)N)C(=O)O [D-Pal-GR13] (HELM PEPTIDE1{[CCCCCCCCCCCCCCCC(=O)[*:2]].G.[dR].[dR].G.G.[dR].G.G.[dR].G.[dR].G.[dR]}$$$$V2.0)
S. aureus MBC90 (S. aureus ATCC 6538; pH 5.5): 0.19 µM | S. aureus MBC100 (S. aureus ATCC 6538; pH 5.5): 47 µM | MBC90 (S. aureus ATCC 6538; pH 5.5, 0.25% glucose): 0.075 µg/mL (≈ 0.0471 µM) | MBC100 (S. aureus ATCC 6538; pH 5.5, 0.25% glucose): 75 µg/mL | MBC99 (S. aureus ATCC 6538; pH 5.5, 0.25% glucose): 0.59 µg/mL (≈ 0.37 µM) | P. aeruginosa MBC90 (P. aeruginosa ATCC 10145): 0.047 µM | P. aeruginosa MBC100 (P. aeruginosa ATCC 10145): 0.19 µM | MBC90 (P. aeruginosa ATCC 10145): 0.075 µg/mL (≈ 0.0471 µM) | MBC100 (P. aeruginosa ATCC 10145): 0.3 µg/mL (≈ 0.188 µM)

GQHGSSSGHSSTHGQHGSTSGQSSSC-Pal* (C-terminal palmitoyl; S-palmitoylated peptide derived from human hornerin (S-Pal-HRNR 598-623); LIPID (26)..(26) … (THIOETHER BOND)) [S-Pal-HRNR598-623]
max.killing (S. aureus ATCC 6538; pH 5.5, 0.25% glucose): 99.7-99.9%

HAHSGHGQSTQRGSRTAGR [FLG-22082-2100]
P. aeruginosa MBC90 (P. aeruginosa ATCC 10145): 0.010 µM | P. aeruginosa MBC100 (P. aeruginosa ATCC 10145): 0.076 µM | MBC90 (P. aeruginosa ATCC 10145): 0.038 µg/mL | MBC100 (P. aeruginosa ATCC 10145): 0.3 µg/mL

CCCCCCCCCCCCCCCC(=O)NCC(=O)N[C@H](CCCCN)C(=O)NCC(=O)N[C@H](CCCCN)C(=O)O [D-Pal-GK4, D-Pal-GKDGKD] (HELM PEPTIDE1{[CCCCCCCCCCCCCCCC(=O)[*:2]].G.[dK].G.[dK]}$$$$V2.0)
MBC90 (S. aureus ATCC 6538; pH 5.5, 0.25% glucose): 4.7 µg/mL (≈ 7.5 µM) | MBC100 (S. aureus ATCC 6538; pH 5.5, 0.25% glucose): 9.375 µg/mL | MBC90 (P. aeruginosa ATCC 10145): 1.18 µg/mL (≈ 1.88 µM) | MBC100 (P. aeruginosa ATCC 10145): 4.7 µg/mL (≈ 7.5 µM)

CCCCCCCCCCCCCCCC(=O)NCC(=O)N[C@H](CCCNC(=N)N)C(=O)NCC(=O)N[C@H](CCCNC(=N)N)C(=O)O [D-Pal-GR4, Pal-GRDGRD] (HELM PEPTIDE1{[CCCCCCCCCCCCCCCC(=O)[*:2]].G.[dR].G.[dR]}$$$$V2.0)
MBC90 (S. aureus ATCC 6538; pH 5.5, 0.25% glucose): 18.75 µg/mL (≈ 27.5 µM) | MBC100 (S. aureus ATCC 6538; pH 5.5, 0.25% glucose): 37.5 µg/mL | MBC90 (P. aeruginosa ATCC 10145): 18.75 µg/mL (≈ 27.5 µM) | MBC100 (P. aeruginosa ATCC 10145): 150 µg/mL (≈ 220 µM)

CCCCCCCCCCCCCCCC(=O)N[C@@H](CO)C(=O)N[C@@H](Cc1c[nH]cn1)C(=O)N[C@@H](Cc1c[nH]cn1)C(=O)N[C@@H](CCCNC(=N)N)C(=O)N[C@@H](CS)C(=O)N[C@@H](CS)C(=O)N[C@@H](CCCNC(=N)N)C(=O)N[C@@H](CO)C(=O)N[C@@H](Cc1c[nH]cn1)C(=O)N[C@@H](CCCNC(=N)N)C(=O)N[C@@H](CS)C(=O)N[C@@H](CCCNC(=N)N)C(=O)N[C@@H](CCCNC(=N)N)C(=O)O [Pal-LCE3B56-68] (HELM PEPTIDE1{[CCCCCCCCCCCCCCCC(=O)[*:2]].S.H.H.R.C.C.R.S.H.R.C.R.R}$$$$V2.0)
MBC100 (S. aureus ATCC 6538; pH 5.5, 0.25% glucose (text)): 78 to 307 nM
